First the molecules themselves.
B1: PhoQ; a variant is named by its letters at X, in order, P23837 (parent)
chain: MKKLLRLFFPLSLRVRFLLATAAVVLVLSLAYGMVALIGYSVSFDKTTFRLLRGESNLFYTLAKWENNKLHVELPENIDKQSPTMTLIYDENGQLLWAQRDVPWLMKMIQPDWLKSNGFHEIEADVNDTSLLLSGDHSIQQQLQEVREDDDDAEMTHSVAVNVYPATSRMPKLTIVVVDTIPVELKSSYMVWSWFIYVLSANLLLVIPLLWVAAWWSLRPIEALAKEVRELEEHNRELLNPATTRELTSLVRNLNRLLKSERERYDKYRTTLTDLTHSLKTPLXXLQXXLRSLRSEKMSVSDAEPVMLEQISRISQQIGYYLHRASMRGGTLLSRELHPVAPLLDNLTSALNKVYQRKGVNISLDISPEISFVGEQNDFVEVMGNVLDNACKYCLEFVEISARQTDEHLYIVVEDDGPGIPLSKREVIFDRGQRVDTLRPGQGVGLAVAREITEQYEGKIVAGESMLGGARMEVIFGRQHSAPKDE

This is one part of the list. Some results are limits rather than exact numbers.

Variants of B1 are the subject of the assay. The assay can be described thus: enrichment ratio after two sorts for PhoP signalling (ratio (wild type AVST 3.29)); higher = more functional. The settings on record: with PhoP (E. coli).
With TRSI, the enrichment ratio worked out at 2.03. With GTFS the figure was no more than 0.25; with GATK, no more than 0.25; with LPGL, no more than 0.25. For YPRL the value was no more than 0.25. With RSDI the figure was no more than 0.25; with HDDI, no more than 0.25.

In the case of DFGR, the enrichment ratio was no more than 0.25.

Take DHEP: the enrichment ratio was no more than 0.25.

For the variant MKIR, the enrichment ratio was no more than 0.25. With YARF the figure was no more than 0.25; with IWAK, no more than 0.25. With YSET the figure was no more than 0.25. With YFSW the figure was no more than 0.25. As for EKAG, the enrichment ratio is no more than 0.25. With HNYV the figure was no more than 0.25; with PAVP, no more than 0.25. Consider KKFR, for which the enrichment ratio is no more than 0.25.

For ERIF, the enrichment ratio is no more than 0.25. For LGMR the value was no more than 0.25; for DSRN, no more than 0.25; for SSSW, 0.264. On to EDSI, for which the enrichment ratio was no more than 0.25.

Turning to EQRP, the enrichment ratio is no more than 0.25. For KNIF the value was no more than 0.25; for PVQF, no more than 0.25. Consider THYG, for which the enrichment ratio is no more than 0.25. Turning to HEKG, the enrichment ratio was no more than 0.25. With RANR the figure was no more than 0.25; with KGWH, no more than 0.25; with PNAG, no more than 0.25. For KNID the value was no more than 0.25. For MEFM the value was no more than 0.25. As to HCFL, the enrichment ratio is no more than 0.25.

SEGI: the enrichment ratio came out at 5.82. For KYQQ the value was no more than 0.25; for PARY, no more than 0.25. For LPRS the value was no more than 0.25.

Regarding FPVE, the enrichment ratio is no more than 0.25. With KPPF the figure was no more than 0.25. With PRCD the figure was no more than 0.25; with PSDL, no more than 0.25. For RDMR the value was no more than 0.25; for IIHF, no more than 0.25. Turning to QRIL, the enrichment ratio was no more than 0.25.

As to EGWC, the enrichment ratio is no more than 0.25. For GIFK the value was no more than 0.25; for RMAG, no more than 0.25; for GMVM, 3.22. For KHPW the value was no more than 0.25.

For the variant PIEH, the enrichment ratio is no more than 0.25. For NGVF the value was no more than 0.25; for VGGC, no more than 0.25; for RVQY, no more than 0.25.

As for MQAM, the enrichment ratio was determined as 2.71. With WLML the figure was no more than 0.25; with FGNR, 0.48. For FRFT the value was no more than 0.25; for YQGK, no more than 0.25. For TVTP the value was no more than 0.25; for AHVW, no more than 0.25. On to DWLG, for which the enrichment ratio was no more than 0.25. For SPHD the value was no more than 0.25; for IKWF, no more than 0.25; for ITRD, no more than 0.25. For FYVF the value was no more than 0.25. For TYIW the value was no more than 0.25; for QLTC, 5.06. Consider PDQF, for which the enrichment ratio was no more than 0.25.

Consider KHLS, for which the enrichment ratio is no more than 0.25. With DASQ the figure was no more than 0.25. For TIPI the value was 1.26. With APFV the figure was no more than 0.25; with ASAP, no more than 0.25; with TLND, 1.48. On to GRPK, for which the enrichment ratio was 0.916. For AWWP the value was no more than 0.25.

In the case of QVMQ, the enrichment ratio is no more than 0.25. With IMNK the figure was no more than 0.25. For WVGD the value was no more than 0.25. With NTNW the figure was no more than 0.25; with SSDR, no more than 0.25; with KILH, no more than 0.25. On to RADT, for which the enrichment ratio was no more than 0.25.

On to FEYC, for which the enrichment ratio was no more than 0.25.

As to WPYH, the enrichment ratio was no more than 0.25. With DTAC the figure was no more than 0.25. For NQQL the value was no more than 0.25. For PYRH the value was no more than 0.25; for SVMH, 22.9; for YLLK, no more than 0.25.

On to VQWI, for which the enrichment ratio is no more than 0.25. With QWDY the figure was no more than 0.25; with SYAD, no more than 0.25; with FKWS, no more than 0.25. For VSGV the value was 0.304.

Take IFVC: the enrichment ratio was no more than 0.25. With QIPF the figure was no more than 0.25. With NRET, the enrichment ratio was no more than 0.25. For IQYR the value was no more than 0.25; for VRQP, no more than 0.25. For RTCT the value was no more than 0.25; for DKYA, no more than 0.25. With VCIE the figure was no more than 0.25. MPWD: the enrichment ratio was no more than 0.25. With EPSL the figure was no more than 0.25; with YGEW, no more than 0.25; with IETW, no more than 0.25. For THTH the value was 4.46; for SERR, no more than 0.25.

As for RASD, the enrichment ratio is no more than 0.25.

For the variant WIRK, the enrichment ratio is no more than 0.25. With WMHK the figure was no more than 0.25.

FTNK: the enrichment ratio was no more than 0.25. For NQDI the value was no more than 0.25; for WMFA, no more than 0.25. With DTQE the figure was no more than 0.25; with LELS, 10.9. For MCHT the value was no more than 0.25. With HMQG, the enrichment ratio was no more than 0.25. SNWD: the enrichment ratio is no more than 0.25. With SWCQ the figure was no more than 0.25; with NFTG, no more than 0.25. Turning to TRTT, the enrichment ratio is no more than 0.25. On to ICLS, for which the enrichment ratio came out at 1.16. With PQLM the figure was no more than 0.25. Regarding DQWI, the enrichment ratio is no more than 0.25. For AGYG the value was no more than 0.25; for KGWV, no more than 0.25.

Take SCHY: the enrichment ratio is no more than 0.25.

ECGP: the enrichment ratio was no more than 0.25. On to QNWS, for which the enrichment ratio was determined as 8.87. For DCIH the value was no more than 0.25. With EHWC the figure was no more than 0.25; with SIIY, 1. With MMVF the figure was no more than 0.25; with WWFD, no more than 0.25. As to YMKV, the enrichment ratio is no more than 0.25. With YQIC the figure was no more than 0.25; with MGCS, 6.13; with TKEK, no more than 0.25. For YPIH the value was no more than 0.25; for KPVM, no more than 0.25; for SDTF, no more than 0.25. With RVPL the figure was no more than 0.25; with PTQC, no more than 0.25; with DGHQ, no more than 0.25.

Turning to RTQF, the enrichment ratio was no more than 0.25. On to AQNW, for which the enrichment ratio is no more than 0.25. With SQIS the figure was 13.9. For SPSL the value was no more than 0.25. With DNSG the figure was no more than 0.25. For SITY, the enrichment ratio amounted to 12.7.

The record behind these values is a collection of fitness landscapes (doi:10.1126/science.1257360).
